Measured values as given in PubChem BioAssay AID651820 (National Center for Advancing Translational Sciences (NCATS), 2012).
The campaign covered roughly 340,000 compounds. About 12,000 (3.5%) were called active. Inconclusive results, whose numbers are uncertain, are shown with a selection of clear calls. Calls come from the whole dose curve; as a rule, active = well fitted inhibition curve with a large enough effect; inconclusive = small, poorly fitted or top-dose-only effect, or another doubt; inactive = no such curve, though single readings can be large or run the other way. No potency is given beside an inconclusive call; the fits are too rough. More than one record can exist for a structure, and the calls need not agree.

Test: qHTS Assay for Inhibitors of Hepatitis C Virus (HCV)
Conditions: Huh7.5.1 HCVcc-Cre (HCVcc is cell-culture hepatitis C virus) infection, luciferase reporter, 44 h; activity change, negative = inhibition: at 41.8 µM (top of the series) unless noted
Method in brief: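 1,000 cells/well; 4 h culture; + compound; + HCVcc-Cre (~0.5 moi); 44 h; luciferase substrate, RT 15 min; read 15 sec.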
% is set by controls: 0 for no effect and ±100 for the full control effect; potency is the fitted concentration of half-maximal effect; tags give direction and shape of the fitted curve.

Row | Structure (SMILES) | Potency | activity change, negative = inhibition
1 | COC(=O)C1=C(c2ccccc2OCc2ccccc2)C[C@@H]2CC[C@H]1N2C(=O)NCc1ccc(Br)cc1 | inconclusive [inhibitor, partial curve] | –
2 | CCn1nc(C(=O)N[C@@H](CCSC)c2nc3ccccc3[nH]2)c2ccccc2c1=O | – | inactive: -12.6%
3 | CCOC(=O)c1c(-c2ccccc2)[nH]c2ccc(O)cc12 | active: 11.2 µM | –
4 | C/C(=N\NC(=O)c1cc2ccccc2cc1O)c1cccs1 | – | inactive: -26.8%
5 | COC(=O)C1=C(c2cccc(C#N)c2)C[C@@H]2CC[C@H]1N2C(=O)NCCO | – | inactive: 42.3%
6 | COc1cc(CNCc2ccccn2)ccc1OCc1c(Cl)cccc1Cl | active: 11.2 µM | –
7 | Cc1ccc(S(=O)(=O)N(C)CC(=O)N2CCN(Cc3ccc4c(c3)OCO4)CC2)cc1 | inconclusive [inhibitor, single point] | –
8 | Cc1cc(C)c(NC(=O)CSc2nnc(-c3ccccn3)n2N)c(Cl)c1 | – | inactive: 11.6%
9 | O=C(CCn1c(=O)oc2ccccc21)Nc1ccccc1 | – | inactive: 8.67%
10 | CC(=O)c1sc(NC(=O)CCS(=O)(=O)c2ccc(Cl)cc2)nc1C | active: 1.12 µM | –
11 | Cc1ccc(OCC(=O)c2ccc3c(c2)CCCC3)cc1C | inconclusive [inhibitor, partial curve] | –
12 | CCOc1ccc(NC(=O)CSc2nc(=O)n(Cc3cccnc3)c3c2CCC3)cc1 | inconclusive [inhibitor, full curve] | –
13 | CCOC(=O)c1cc(CC)sc1NC(=O)c1cc(OCC)c(OCC)c(OCC)c1 | active: 2.82 µM | –
14 | CCCOc1ccc(C(=O)NC(=S)NNC(=O)c2c(-c3ccccc3)noc2C)cc1 | inconclusive [inhibitor, partial curve] | –
15 | CC(NS(=O)(=O)c1ccc(OCC(=O)Nc2cccc([N+](=O)[O-])c2)cc1)c1ccccc1 (stereo not drawn) | inconclusive [inhibitor, partial curve] | –
16 | Cc1cc(/C=C2\SC(N)=NC2=O)c(C)n1-c1ccc(F)cc1 | – | inactive: -1.89%
17 | Cc1cc(C)c(C#N)c(SCc2ccc3c(c2)OCO3)n1 | inconclusive [inhibitor, single point] | –
18 | Brc1ccc(-c2nc(-c3ccccc3)no2)o1 | inconclusive [inhibitor, partial curve] | –
19 | COc1ccc(-c2csc(Nc3ccccc3)[n+]2CC(O)c2ccc([N+](=O)[O-])cc2)cc1 (stereo not drawn) | active: 8.91 µM | –
20 | Cc1ccc(S(=O)(=O)N2CCOCC2)cc1C(=O)OCCOc1cccc(Cl)c1 | inconclusive [inhibitor, partial curve] | –
21 | CC(=O)Nc1ccc(/C=C/c2nc3ccccc3o2)cc1 | inconclusive [inhibitor, partial curve] | –
22 | COc1cc(OC)cc(-c2c(-c3cccs3)c3cc(-c4ccc(N(C)C)nc4)ccc3n2C)c1 | inconclusive [inhibitor, partial curve] | –
23 | O=C(CCl)Nc1ccc(S(=O)(=O)Nc2nccs2)cc1 | inconclusive [inhibitor, single point] | –
24 | CC(Cc1ccccc1)N1C(=O)c2ccccc2C1=O (stereo not drawn) | – | inactive: 5.27%
25 | CCCOc1ccc(N2C(=O)CC(N(C(=O)c3ccco3)c3ccc(OCCC)cc3)C2=O)cc1 (stereo not drawn) | inconclusive [inhibitor, single point] | –

Row | Structure (SMILES) | Potency | activity change, negative = inhibition
26 | CCN(CC)CCCN(C(=O)Cn1nnc(-c2ccc(OC)c(OC)c2)n1)C(C(=O)NC(C)(C)C)c1ccc(F)cc1 (stereo not drawn) | – | inactive: -21.2%
27 | CCn1cc(C(=O)O)c(=O)c2ccc(C)nc21 | inactive | –
28 | CCOC(=O)N1CCC(NS(=O)(=O)c2cc(C(=O)OC)n(C)c2)CC1 | – | inactive: -3.36%
29 | COc1ccc(-n2c(SCC(=O)NCC3CCCO3)nc3c(c2=O)SC(C)C3)cc1 (stereo not drawn) | – | inactive: 11.3%
30 | CC(C)COc1ccc(/C(O)=C2/C(=O)C(=O)N(CCN(C)C)C2c2ccncc2)cc1 (stereo not drawn) | – | inactive: 8.76%
31 | CN(C(=O)c1ccc(OC2CCN(CCc3ccccc3)CC2)cc1)C1CCOCC1 | – | inactive: 14.7%
32 | CC(Oc1ccccc1)C(=O)NC1=NCCS1 (stereo not drawn) | inconclusive [inhibitor, partial curve, poor fit] | –
33 | COc1cccc(N(C(=O)c2snc(C(N)=O)c2N)C(C(=O)NCC2CCCO2)c2cccs2)c1 (stereo not drawn) | – | inactive: -10.9%
34 | O=C(Nc1ccc(Nc2ccncc2)cc1)c1ccc([N+](=O)[O-])cc1 | active: 11.2 µM | –
35 | O=C1/C(=C\c2cc3c(cc2Cl)OCO3)N2CCC1CC2 | – | inactive: -10.3%
36 | CC(C)=N/N=C(/c1ccc([N+](=O)[O-])cc1)C12CN3CN(CN(C3)C1)C2 | – | inactive: 4.89%
37 | Cc1cc(C)n(-c2ccc(C(=O)Nc3cccc(S(=O)(=O)N4CCCC4)c3)cc2)n1 | inconclusive [inhibitor, partial curve, poor fit] | –
38 | Cc1ccc(NC(=O)CN2C(=O)S/C(=C\c3cc(C)n(-c4ccc(C(=O)O)cc4)c3C)C2=O)cc1 | – | inactive: 0.0531%
39 | O=C(COc1ccc(/C=N/NC(=O)c2cc3ccccc3o2)cc1Cl)Nc1ccccc1 | active: 5.62 µM | –
40 | COc1ccccc1/C=C/C1(C(=O)NC2CCCC2)CC(=O)N1c1ccc(C)cc1 (stereo not drawn) | inconclusive [inhibitor, single point] | –
41 | Cc1nn2c(-c3cccc(NC(=O)CN4CCOCC4)c3)nnc2c2ccccc12 | inconclusive [inhibitor, full curve, poor fit] | –
42 | CCOC(=O)c1c(NC(=O)C2C3C=CC(C3)C2C(=O)O)sc2c1CCC(C)C2 (stereo not drawn) | – | inactive: -0.76%
43 | O=S(=O)(NCC1CCCO1)c1ccc(S(=O)(=O)N(Cc2ccc(F)cc2)Cc2ccco2)cc1 (stereo not drawn) | inconclusive [inhibitor, partial curve] | –
44 | CCn1c(CCNC(=O)c2cccs2)nnc1SCC(=O)Nc1nc(-c2ccccc2)cs1 | – | inactive: -23%
45 | Cc1ccc(NC(=O)C2CCCN2C(=O)NCc2ccccc2)cc1 (stereo not drawn) | – | inactive: -7.48%
46 | Cc1nnc(NC(=O)c2nc(S(=O)(=O)Cc3ccccc3C)ncc2Cl)s1 | inconclusive [inhibitor, single point] | –
47 | O=C(NCCSc1ncc(-c2ccc(F)cc2)[nH]1)c1ccco1 | inconclusive [inhibitor, partial curve] | –
48 | CSc1ccc(/C=N\NC(=O)CNc2ccc(C)cc2)cc1 | – | inactive: 10.3%
49 | COc1ccc2oc(=O)c(C(=O)Nc3ccccc3-c3ccccc3)cc2c1 | – | inactive: 13.2%
50 | COc1ccc(OC)c(S(=O)(=O)N2CCN(CC(O)COc3ccc(C#N)cc3)CC2)c1 (stereo not drawn) | inconclusive [inhibitor, single point] | –

Row | Structure (SMILES) | Potency | activity change, negative = inhibition
51 | CC1(C)Cc2c(c(N3CCCC3)nc3sc4c(N5CCN(CCO)CC5)ncnc4c23)CO1 | active: 2.24 µM | –
52 | COc1ccc(NC(=O)c2cc3cc(OC)ccc3oc2=O)cc1 | – | inactive: 4.43%
53 | CCCN1C2CCCC1CC(NC(=S)Nc1ccc(OC)cc1)C2 (stereo not drawn) | – | inactive: -19.1%
54 | Cc1cc2cc(CNC(=O)Cc3ccc([N+](=O)[O-])cc3)ccc2[nH]1 | inconclusive [inhibitor, single point] | –
55 | CC(C)C1N(c2ccccc2)C(N)=C(C#N)C1(C#N)C#N (stereo not drawn) | inconclusive [inhibitor, single point] | –
56 | CCOc1cccc(C2C(C(=O)c3ccco3)=C(O)C(=O)N2Cc2ccncc2)c1 (stereo not drawn) | inconclusive [inhibitor, single point] | –
57 | O=c1cc(CN2CCN(S(=O)(=O)c3ccc4c(c3)OCCO4)CC2)c2ccc(O)cc2o1 | inconclusive [inhibitor, full curve] | –
58 | COc1ccc2nc3c(cc2c1)c(NC(=O)c1cccs1)nn3CC(C)C | inconclusive [inhibitor, single point] | –
59 | Cc1nc(N/N=C/c2ccc(Br)cc2)cc(N2CCOCC2)n1 | inconclusive [inhibitor, single point] | –
60 | c1ccc(N/N=C(\Cc2nc3ccccc3[nH]2)c2ccccc2)cc1 | – | inactive: -8.67%
61 | COc1cccc(NS(=O)(=O)c2ccc3[nH]cc(C(=O)NCCCOC(C)C)c(=O)c3c2)c1 | inconclusive [inhibitor, partial curve] | –
62 | CCN(CC)S(=O)(=O)c1ccc(Cl)c(C(=O)Nc2cc(C)nn2-c2ccccc2)c1 | inconclusive [inhibitor, single point] | –
63 | CCn1cc(CNCc2ccc(OCC(O)CN(C)Cc3ccccc3)cc2)cn1 (stereo not drawn) | active: 10 µM | –
64 | CC1CC(C)CN(CCCNC(=O)c2csc3c2CCCC3)C1 (stereo not drawn) | inconclusive [inhibitor, partial curve] | –
65 | CCN(CC)CCNC(=O)c1cc(S(C)(=O)=O)ccc1OC | active: 35.5 µM | –
66 | COc1ccc(S(=O)(=O)N2CCN(C3CCN(Cc4ccccc4)CC3)CC2)cc1 | inconclusive [inhibitor, single point] | –
67 | CCN1C(=O)[C@H]2[C@H]3CN=C(SCc4ccc(Cl)cc4)N3[C@@](Cc3ccccc3)(C(=O)OC)[C@H]2C1=O | inconclusive [inhibitor, single point] | –
68 | O=C(CN1CCN(c2ccccn2)CC1)Nc1ccc([N+](=O)[O-])cc1C(=O)Nc1ccccc1F | active: 11.2 µM | –
69 | Cc1ccc(C(=O)NNC(=O)CSc2nnc3c(n2)[nH]c2ccc(F)cc23)cc1 | inconclusive [inhibitor, single point] | –
70 | COc1ccc(S(=O)(=O)NCc2cccnc2)cc1Br | inconclusive [inhibitor, partial curve] | –
71 | COc1ccccc1N1CCN(S(=O)(=O)CCNC(=O)C2CCCCC2)CC1 | – | inactive: -14.6%
72 | COc1ccc(-c2sc3cc4c(cc3c2C#CC2(N)CCCCC2)OCO4)cc1 | active: 22.4 µM | –
73 | Nn1cnnc1SCC(=O)Nc1ccc2c(c1)OCO2 | – | inactive: 16.2%
